# From PubChem BioAssay AID504466 (National Center for Advancing Translational Sciences (NCATS), 2011)
# “And” between values parts separate entries of the source, which are not always exact repeats. Equal values may be shown once. The whole screen tested about 330,000 compounds, of which about 4,200 (1.3%) were called active. The shares of active, inactive and inconclusive entries below differ from those in the screen. The call rests on the fitted dose curve; in most records, active means well fitted activation curve with a large enough effect; inconclusive means small, poorly fitted or top-dose-only effect; inactive means no such curve, though single readings can be large or run the other way. A potency beside an inconclusive call is a rough fit, not a confirmed value.
# Assay: qHTS screen for small molecules that induce genotoxicity in human embryonic kidney (HEK293T) cells expressing luciferase-tagged ELG1; further: nearly all actives have a fitted effect of over 60% in size; on activity change, positive = activation: % of control where 0% means no effect
# Details: HEK293T ELG1-luciferase reporter, luminescence, 16 h; series mostly up to 46 µM; activity change, positive = activation: at the top concentration
# Summary of the method: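 16 hr compound incubation (37 °C, 5% CO2) of HEK293T cells carrying luciferase-tagged ELG1; luciferase then measured by ONE-Glo luminescence after 30 min at RT.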
# Potency means the concentration at half of the fitted maximal effect; tags describe the fitted curve by direction and shape.
SMILES,Potency,"activity change, positive = activation"
COc1ccc(C(=O)Nc2nc3cc4c(cc3s2)OCO4)c(OC)c1,"inconclusive: 4.11 µM [activator, partial curve]",–
Cc1nc2ccccc2c2c1C(=O)N(C)C2=O,–,inactive: -2.24%
CCC1C(=O)n2nc(-c3ccccc3)cc2N=C1C (configuration not stated),"inconclusive: 18.4 µM [activator, partial curve]",–
CC(C)N(C)S(=O)(=O)c1ccc(Cl)c(C(=O)O)c1,–,inactive: 0.661%
Cc1cc(NC(=O)CC2CCCC2)ccc1Br,"inconclusive: 3.55 µM [activator, single point]",–
O=C(N/N=C/c1cc2c(cc1Br)OCO2)c1ccccn1,"inconclusive: 6.51 µM [activator, partial curve]",–
COC(=O)c1c(NC(=O)CC2Nc3ccccc3NC2=O)sc(C)c1C (configuration not stated),"inconclusive: 25.9 µM [activator, partial curve, poor fit]",–
S=C(Nc1ccccc1)c1ccccn1,"inconclusive: 5.17 µM [activator, partial curve, poor fit] and inconclusive: 9.2 µM [activator, partial curve]",–
CCOc1ccc(-c2nnc(NC3=NCCCCC3)o2)cc1,active: 2.31 µM,–
CCn1nnnc1SCC(=O)Nc1ccc2c(c1)OCCO2,"inconclusive: 10.3 µM [activator, partial curve]",–
N#C/C(=N\Nc1ccccc1[N+](=O)[O-])C(=N)N1CCCCC1,"inconclusive: 1.64 µM [activator, partial curve]",–
COc1cc(SC)ccc1C(=O)Nc1ccc(Cl)cn1,"inconclusive: 0.206 µM [activator, full curve]",–
OCCNCc1ccc(OCc2ccc(Cl)cc2Cl)cc1,"inconclusive: 16.4 µM [activator, single point]",–
CCCSc1nc2c(cnn2-c2ccccc2)c(=O)n1N,"inconclusive: 2.59 µM [activator, partial curve]",–
CN(C(=O)c1cccc(NC(=O)Cc2cccc([N+](=O)[O-])c2)c1)C1CCCCC1,–,inactive: -3.81%
Cc1c(C(=O)Nc2cccc([N+](=O)[O-])c2)csc1-c1ccccc1,"inconclusive: 0.92 µM [activator, full curve]",–
Cc1nc(C(C)NC(=O)c2cc(COc3ccc(C)c(C)c3)on2)c(C)s1 (configuration not stated),"inconclusive: 14.6 µM [activator, partial curve]",–
CC1CC(=O)C2=C(C1)Nc1nc3ccccc3n1C2c1cccnc1 (configuration not stated),–,inactive: -0.941%
CCCSc1nc2c(c(=O)[nH]c(=O)n2C)n1Cc1ccccc1,"inconclusive: 20.6 µM [activator, partial curve, poor fit]",–
Cc1cc(C)nc(NC(=O)CSc2nc3ccccc3o2)n1,"inconclusive: 22.4 µM [activator, single point]",–
Cc1nn2c3c(cnc2c1-c1ccccc1)C(=O)CCC3,"inconclusive: 18.4 µM [activator, partial curve, poor fit]",–
O=[N+]([O-])c1cc(S(=O)(=O)Nc2ccc(Cl)cc2)ccc1N/N=C/c1ccncc1,"inconclusive: 23.1 µM [activator, single point]",–
CCC(=O)Nc1ccc(C(=O)CSc2nnc(-c3ccc(NS(C)(=O)=O)cc3)n2C)cc1OC,–,inactive: 4.85%
CCN(CC)C(=O)Oc1ccc2c(=O)c(-c3ccc(OC)cc3)c(C)oc2c1,–,inactive: -10.1%

SMILES,Potency,"activity change, positive = activation"
Cc1ccc2nc3c(cc(C(N)=S)c(=N)n3CCCOC(C)C)c(=O)n2c1,–,inactive: -4.89%
Cc1oc(-c2ccccc2)cc1C(=O)Nc1cccc(C(=O)O)c1,"inconclusive: 29.1 µM [activator, single point]",–
Cc1ccc(S(=O)(=O)Nc2cccc(-n3cnnn3)c2)cc1C,–,inactive: -0.403%
Cc1cc(C(=O)Nc2ccccc2)c(C)o1,"inconclusive: 16.4 µM [activator, partial curve, poor fit]",–
CCc1ccc(CN(C(=O)c2cc3ccccc3oc2=O)C2CCS(=O)(=O)C2)cc1 (configuration not stated),"inconclusive: 6.51 µM [activator, partial curve]",–
COc1ccc(N/C=C2/Sc3ccccc3NC2=O)cc1,"inconclusive: 29.1 µM [activator, partial curve, poor fit]",–
CCOC(=O)CN1C(=O)S/C(=C/C=C/c2ccc(N(C)C)cc2)C1=O,"inconclusive: 18.4 µM [activator, partial curve]",–
c1ccc(CSCc2cn3ccccc3n2)cc1,"inconclusive: 6.51 µM [activator, partial curve]",–
Cc1cc(/C=N/Nc2ccc([N+](=O)[O-])cn2)c(C)n1-c1ccccc1,"inconclusive: 1.3 µM [activator, full curve]",–
O=c1c2[nH]c3cccc(Cl)c3c2ncn1CC1CCCO1 (configuration not stated),"inconclusive: 23.1 µM [activator, partial curve, poor fit]",–
CCCN(CCC)CCNC(=O)c1cc2c(-c3ccccc3F)nn(C)c2s1,–,inactive: -4.16%
Nc1nc(SCc2ccc(Cl)cc2Cl)nc2nc3c(cc12)CCCC3,"inconclusive: 29.1 µM [activator, partial curve, poor fit]",–
COc1cc2sc3cc(NCCCN4CCOCC4)ccc3c(=O)c2cc1OC,"inconclusive: 11.6 µM [activator, partial curve, poor fit]",–
CCN(CC)c1nc2ccccc2n(Cc2cccc(OC)c2)c1=O,–,inactive: 1.76%
N/C(=N\OC(=O)CCC1CCCC1)c1ccccn1,"inconclusive: 14.6 µM [activator, single point]",–
O=C(Nc1ccccc1)c1ccc(-c2ccc(F)cc2)s1,active: 7.3 µM,–
CCCC(=O)NNC(=O)c1c(O)c2ccccc2[nH]c1=O,–,inactive: 1.28%
CCOC(=O)c1c(NC(=O)Cc2cccs2)sc(C)c1C,"inconclusive: 25.9 µM [activator, partial curve, poor fit]",–
Cc1ccc(Nc2nc(C(=O)NCc3ccco3)cs2)cc1,–,inactive: -2.51%
Nn1c(SCc2ccccc2)nnc1C1CCCCC1,"inconclusive: 18.3 µM [activator, partial curve, poor fit]",–
CCN(CC)CCNC(=O)c1ccc(NC(=O)c2cccc(S(=O)(=O)N3CCc4ccccc43)c2)cc1,"inconclusive: 18.3 µM [activator, partial curve, poor fit]",–
COc1ccc(OC)c(NC(=S)NC(=O)c2ccc(Br)o2)c1,–,inactive: 3.31%
CC1=NN(c2cccc(C(=O)O)c2)C(=O)/C1=C\C=C\c1ccco1,"inconclusive: 29.1 µM [activator, single point]",–
CN(CC1COc2ccccc2O1)C(=O)CSc1ncccn1 (configuration not stated),"inconclusive: 16.4 µM [activator, partial curve, poor fit]",–

SMILES,Potency,"activity change, positive = activation"
O=C(Nc1ccc2c(c1)CCC2)c1cnccn1,active: 6.51 µM,–
O=c1cc2c(nn1Cc1cccc([N+](=O)[O-])c1)-c1ccccc1CC2,–,inactive: -5.15%
CCCN1C(=O)c2cccc3c(N4CCCCC4)ccc(c23)C1=O,"inconclusive: 23.1 µM [activator, single point]",–
Cn1nc(CC(=O)Nc2ccc3c(c2)OCCO3)c2ccccc2c1=O,"inconclusive: 9.2 µM [activator, partial curve, poor fit]",–
CC(C)CNS(=O)(=O)c1ccc(CCC(=O)O)cc1,–,inactive: 2.13%
CCN(CC)S(=O)(=O)c1ccc(N2CCCC2)c(NC(=O)C2CSC3(C)CCC(=O)N23)c1 (configuration not stated),–,inactive: -4.39%
CCS(=O)(=O)Nc1ccc(-c2nc3cccnc3s2)cc1,"inconclusive: 1.3 µM [activator, partial curve]",–
N/C(=N\OC(=O)CCC1CCCC1)c1ccc(Cl)cc1,"inconclusive: 20.6 µM [activator, partial curve, poor fit]",–
O=C(COc1cc2oc(=O)c3c(c2cc1Cl)CCCC3)N1C[C@H]2C[C@@H](C1)c1cccc(=O)n1C2,–,inactive: -3.29%
Cc1cc(/C=C(\C#N)C(=O)NC2CC2)c(C)[nH]1,"inconclusive: 10.3 µM [activator, partial curve]",–
COc1cccc(NC(=O)CCNC(=O)N2CC(=O)Nc3ccccc32)c1,–,inactive: 3.42%
COCCNC(=O)c1noc2c1CCc1cc(OC)ccc1-2,"inconclusive: 23.1 µM [activator, partial curve, poor fit]",–
Cc1nc2sc(-c3ccccc3)nn2c(=O)c1Br,"inconclusive: 9.2 µM [activator, partial curve]",–
Cc1cccc(C)c1OCCNC(=O)C(=O)NCc1ccco1,–,inactive: -1.25%
Brc1cc(Br)c2nc(-c3cccs3)ccc2c1,active: 11.2 µM,–
CCNc1nnc(-c2ccccc2OC)s1,"inconclusive: 18.4 µM [activator, partial curve, poor fit]",–
O=C(NCCOc1ccccc1)C1CCCCC1,"inconclusive: 14.6 µM [activator, partial curve]",–
CCNc1nc(N)nc(Oc2ccc(OCCOc3ccccc3)nn2)n1,"inconclusive: 20.6 µM [activator, partial curve, poor fit]",–
Cc1ccc(-c2nc(-c3ccncc3)no2)cc1C,active: 2.31 µM,–
Cc1ccc2nc(NC(=O)c3ccccn3)sc2c1,active: 0.164 µM,–
Cc1cc(C(=O)N/N=C/c2cc(N=Nc3ccccc3)ccc2O)n[nH]1,"inconclusive: 18.4 µM [activator, single point]",–
Cc1c(C)c2cc(Cl)c(OCC(=O)NC3CC(C)(C)NC(C)(C)C3)cc2oc1=O,"inconclusive: 23.1 µM [activator, partial curve, poor fit]",–
O=C(NCCc1ccccc1)c1nc(-c2cccs2)no1,"inconclusive: 25.9 µM [activator, single point]",–
CCOC(=O)CCc1c(C)nc2c(c(C)nn2C(C)(C)C)c1C,"inconclusive: 6.51 µM [activator, partial curve, poor fit]",–
